According to PubChem BioAssay AID1240 (Sanford-Burnham Center for Chemical Genomics, 2008):
The whole screen tested about 50,000 compounds, of which about 800 (1.6%) showed an effect of 50% or more. The list shows a part of the results.

Molecular target: Bcl-2-like protein 10 (Homo sapiens) (UniProt Q9HD36)
Assay: TR3 peptide-Bcl-B binding displacers, biochemical primary FP assay, phenotype converters (AID 1240);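 note: 0% = Bcl-B with tracer peptide and DMSO and 100% = tracer peptide lacking Bcl-B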
Details: GST-Bcl-B / FITC-TR3 peptide fluorescence polarization; stronger effect = higher value; compound at 3.75 mg/L

Sequence of UniProt Q9HD36 (Q9HD36 whole entry, looked up): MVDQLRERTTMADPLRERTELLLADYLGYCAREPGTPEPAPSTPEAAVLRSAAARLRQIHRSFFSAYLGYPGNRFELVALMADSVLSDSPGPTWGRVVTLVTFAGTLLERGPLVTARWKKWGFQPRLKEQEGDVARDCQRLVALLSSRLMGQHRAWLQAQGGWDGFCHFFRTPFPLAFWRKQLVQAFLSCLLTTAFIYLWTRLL

SMILES | displacement [%]
CCOC(=O)c1c(-c2cccs2)csc1NC(=O)c1ccc(F)cc1 | 14.9
CCOC(=O)C1=C(O)/C(=C/c2cccnc2)SC1=Nc1ccc(Cl)cc1 | 41.1
O=C(/C=C\Nc1ccc(Br)cn1)c1ccc(Cl)cc1 | 61.9
Cc1nc2ccccc2n1S(=O)(=O)c1ccc(Br)cc1 | 17.1
COc1ccc(C2/C(=C(\O)c3ccccc3)C(=O)C(=O)N2Cc2cccnc2)c(OC)c1 (configuration not stated) | -7.9
C=C(C)CNC(=S)NNC(=O)COc1cccc(C)c1 | -7.9
Cc1cc(OCC(=O)Nc2cc(Cl)cc(Cl)c2)ccc1Cl | -0.7
NC1=NC(=O)/C(=C\c2ccc(-c3cccc(Cl)c3)o2)S1 | 5.1
COC(=O)c1ccccc1-c1ccc(C=O)o1 | 0.4
CCOc1cc2oc(=O)cc(-c3ccccc3)c2cc1CC | 15.5
COc1ccc(OC)c(C2/C(=C(\O)c3ccccc3)C(=O)C(=O)N2CCN(C)C)c1 (configuration not stated) | -6.4
COc1cccc(OC)c1C(=O)Nc1cc(Cl)cc(Cl)c1 | -5.4
COc1ccc2c(c1)-c1c(ssc1=S)C(C)(C)N2C(=O)CC(C)C | 3.2
CCN(CC)c1ccc(C=Nc2ccc(C)c(F)c2)c(O)c1 | 0.4
COc1ccccc1/C=C1\SC(=S)N(c2cccc(C)c2)C1=O | 1.5
O=C1C(=O)N(C2CCCCC2)C(=O)N1C1CCCCC1 | 16.9
O=C(COc1ccc2ccc(=O)oc2c1)OCc1ccccc1 | 10.9
COc1ccc(NC(=O)c2ccc(CN3CCN(c4ccccc4)CC3)cc2)cc1 | 0.9
COc1ccc(S(=O)(=O)N2CCN(S(=O)(=O)c3ccc(C)cc3)CC2)cc1 | 13.8
COc1ccc(C(=O)O/N=C2/CCCc3c2ccc(OC)c3C)cc1[N+](=O)[O-] | -5.9
CC1(C)CC(=O)C2=C(C1)OC1=C(C(=O)CC(C)(C)C1)C2c1cn[nH]c1-c1ccccc1 | -9.9
CC(=O)NN1C(=O)c2ccc(-c3ccc4c(c3)C(=O)N(NC(C)=O)C4=O)cc2C1=O | -12

SMILES | displacement [%]
CCOC(=O)c1ccc(NC(=O)CCCCCN2C(=O)/C(=C/c3ccc(Cl)cc3)SC2=S)cc1 | 2
O=C1C(=O)N(Cc2cccnc2)C(c2ccc([N+](=O)[O-])cc2)/C1=C(\O)c1ccccc1 (configuration not stated) | -5.6
Cc1ccc(C(=O)NCc2ccco2)cc1 | 8.5
COc1ccc(N2C(=O)c3ccc4c5c(ccc(c35)C2=O)CC4)c(OC)c1 | 12.5
CCOC(=O)c1c(NC(=O)c2ccc(F)cc2)sc(C(=O)Nc2ccc3c(c2)OCO3)c1C | -11.9
CCn1c(O)c(C=NCCc2ccc(O)c(O)c2)c2ccccc21 | 12.4
COc1ccc(C(=O)OCCN2CCOCC2)cc1 | -0.9
O=C(O)CCCCCN1C(=O)C(=O)/C(=C(/O)c2ccc(Cl)cc2)C1c1ccc(F)cc1 (configuration not stated) | 3.4
CC(=O)Nc1ccc(N2C(=O)C3C4c5ccccc5C(c5ccccc54)C3C2=O)cc1 (configuration not stated) | 1.3
CCOc1cc(N)ccc1C1CCCCC1 | -1.5
O=c1[nH]nc(SCc2ccc([N+](=O)[O-])cc2)c(=O)[nH]1 | -4
COc1ccc(NC(=O)COc2ccc(C(C)(C)c3ccccc3)cc2)c(OC)c1 | 9.5
COc1ccc(/C=C2\SC(=O)N(Cc3ccccc3)C2=O)cc1 | -13.1
O=C1Nc2ccc(Br)cc2C1=Cc1nc2ccccc2c(=O)n1-c1ccc([N+](=O)[O-])cc1 | 3
Cc1cc(OCC(=O)Nc2ccc(Nc3ccccc3)cc2)ccc1Br | 1.1
Cc1c(Cl)cccc1NC(=O)c1ccc(Br)o1 | -5.1
O=C(Nc1ccc(Cl)cn1)c1ccc(-c2cccc(Cl)c2)o1 | 9.1
CCOc1cc(NC(=O)c2ccccc2)c(OCC)cc1NC(=O)CCC(=O)O | -7.2
O=C(CSCc1cccc(Br)c1)N1CCCCCC1 | 1
O=C1CC(c2ccc(Cl)cc2)CC2=C1C(c1ccc(C(F)(F)F)cc1)Nc1ccccc1N2 (configuration not stated) | -0.4
CC(C)CC(=O)NS(=O)(=O)c1ccc(NC(=O)c2cccc(Br)c2)cc1 | 12.4
CCN(CC)c1ccc(/C=N\NC(=O)c2cc(C(C)(C)C)[nH]n2)cc1 | 2.8

SMILES | displacement [%]
COc1ccccc1C(=O)NN1C(=O)/C(=C/c2ccccc2Cl)SC1=S | 12.4
COc1cc(/C=c2\sc3nc4ccccc4n3c2=O)ccc1OCCOc1ccc(C(C)(C)C)cc1 | 13.9
O=C1C(=O)c2ccccc2C(Cl)=C1Cl | 4.5
O=S(=O)(Nc1ccccn1)c1cccc(S(=O)(=O)c2ccc(Br)cc2)c1 | -3.6
Nc1ccc(-c2nc3cc(Cl)ccc3o2)c(Cl)c1 | -2.8
O=C(c1cc2n(n1)C(C(F)(F)F)CC(c1ccc(F)cc1)N2)N1CCCC1 (configuration not stated) | 1.3
CC(=O)NS(=O)(=O)c1ccc(NS(=O)(=O)c2ccc(Br)cc2)cc1 | 6.5
CN(C)c1ccc(/C=N/Nc2cc(N3CCOCC3)ncn2)cc1 | -14.2
O=C(NNC(=O)c1cccc(Cl)c1)c1cccnc1 | -5.2
COc1ccccc1/C=N/NC(=O)CSc1nc(C)cc(C)n1 | -0.9
Cc1ccc(S(=O)(=O)NCCCNc2ccc([N+](=O)[O-])cc2)cc1 | 7.1
Cc1[nH]c2ccccc2c1/C=N/NC(=O)c1cccc([N+](=O)[O-])c1 | 0.7
Cc1ccc(-n2nc3cc(C)c(NC(=O)c4cccnc4)cc3n2)cc1 | -2.2
O=C(/C=C/c1ccco1)Nc1ccc(-c2nc3ccccc3s2)c(O)c1 | -33.1
Cc1c(NC(=O)c2cccs2)cccc1[N+](=O)[O-] | 9.2
Cc1ccc(OCC(=O)Nc2ccc3c(c2)OCCO3)c(Br)c1 | 9.5
CC(=O)NC(c1ccc(Cl)cc1)c1c(O)ccc2ccccc12 (configuration not stated) | -11.5
CCCS(=O)(=O)C(=C(Nc1ccc(OC)cc1)Nc1ccc(OC)cc1)S(=O)(=O)CCC | 15
O=C(Nc1ccc(NC(=O)c2cccc3ccccc23)cc1)c1ccc(Br)cc1 | 7
O=C(/C=C/c1ccc(OCc2ccccc2)cc1)c1ccc(Cl)cc1 | 5.4
COC(=O)c1ccccc1NC(=O)CSc1ncn[nH]1 | 10.1
COC(=O)c1cc(C(=O)Nc2ccc(OC)cc2OC)cc([N+](=O)[O-])c1 | 5.9

SMILES | displacement [%]
COc1ccc(Cl)cc1C(=O)Nc1ccc(C)cc1C | 10.1
CCOC(=O)c1c(NC(=S)NC(=O)c2ccc(F)cc2)sc2c1CCCCC2 | 14.6
Cc1ccc2nc(N/N=C\c3ccc([N+](=O)[O-])o3)nc(-c3ccccc3)c2c1 | 32.7
COc1cc(NC(=O)c2cnn3c(C(F)(F)F)cc(-c4cccs4)nc23)c(OC)cc1Cl | 3.8
COc1ccc(C(=O)N2CCN(Cc3cccc4ccccc34)CC2)cc1OC | -5.2
O=C(CC1c2ccccc2Oc2ccccc21)NCCOc1ccccc1 | 15.9
COc1cc(OC)cc(C(=O)N2CCN(Cc3ccccc3OC)CC2)c1 | 6.3
CSCCC(N=C1NC(C)(C)Cc2c1ccc1ccccc21)C(=O)O (configuration not stated) | -7.1
CC(=O)CC1[C@@]2(C)CCCC(C)(C)C2CC[C@@]1(C)O (some centres not stated) | -3.5
CC1CCCC(C)N1C(=O)c1nn2c(c1Cl)NC(c1cccs1)CC2C(F)(F)F (configuration not stated) | -0.6
CC1=NN(c2cccc(C(=O)O)c2)C(=O)/C1=C\c1ccc(-c2cc([N+](=O)[O-])ccc2C)o1 | 32.4
COC(=O)c1ccc(Oc2ccc(/C=C3/SC(=S)N(C)C3=O)cc2OC)c([N+](=O)[O-])c1 | 7.2
CCC(=O)n1/c(=N/C(=N)N)nc(C)c2ccc(C)cc21 | -2.6
O=C(Nc1c[nH]c(=O)[nH]c1=O)c1ccc(-c2ccccc2)cc1 | 5
O=C(CSc1nc2ccccc2c(=O)n1-c1ccccc1)c1cc(Cl)sc1Cl | 5
NC(=O)NC(c1ccccc1)c1coc2ccccc12 (configuration not stated) | 28.4
O=C(Nc1ccccc1C(=O)NCc1ccco1)c1ccco1 | -18.9
S=C(Nc1ccccc1)N1CCN(C(c2ccccc2)c2ccccc2)CC1 | 4.6
O=C(Nc1ccc(OCc2ccccc2)cc1)c1ccccc1Br | 14.1
COc1cc(C2NC(=S)NC(C)=C2C(=O)Nc2cccc(Cl)c2)ccc1O (configuration not stated) | 18.1
CCN(CC)c1ccc(N2C(=O)/C(=C/c3cc(OC)c(OC)c(OC)c3)SC2=S)cc1 | 1.6
COc1ccc(NC(=O)CSc2nnnn2-c2ccccc2)c([N+](=O)[O-])c1 | 3.2

SMILES | displacement [%]
CC1=C(C(=O)Nc2ccccc2)C(c2ccccc2)n2c(s/c(=C/c3ccc(F)cc3)c2=O)=N1 (configuration not stated) | 49.8
COc1cccc(CN2CCN(C3CCCCCC3)CC2)c1OC | -18.1
COc1ccc(Cl)cc1/C=C(/C#N)C(=O)Nc1cccc(Br)c1 | 14.8
Cc1c(Cc2ccccc2)c(=O)oc2cc(OCC(=O)N(C)C)ccc12 | -4.4
CC(Oc1ccccc1)C(=O)Nc1cc(C(=O)O)cc(C(=O)O)c1 (configuration not stated) | 12.4
Cc1cc(C)c(/C=N/n2cnnc2)cc1C | -2.2
COC(=O)c1ccccc1NC(=O)COc1ccc(C)cc1 | 11.6
O=[N+]([O-])c1ccc(Cl)c(S(=O)(=O)Nc2ccccn2)c1 | -6.2
COc1ccc(NC(=O)c2ccc(C)c([N+](=O)[O-])c2)cc1 | 13.7
CCc1cc(=O)oc2cc(OCc3ccccc3Cl)ccc12 | -1.9
Cc1cc(C)c2nc(NC(=O)c3ccco3)sc2c1 | -3.9
CC(=O)NC1=NC(=O)/C(=C\c2ccc(N(C)C)cc2)S1 | -23.2
CN(C)c1ccc(/C=C(\C#N)c2nc(C#N)c(N)c(C#N)c2N)cc1 | -31.9
O=S(=O)(c1ccc(Cl)cc1Cl)N1CCN(c2ccccc2)CC1 | -7.4
COc1cccc(N(CC(=O)Nc2cc(OC)ccc2OC)S(=O)(=O)c2ccccc2)c1 | -10.2
COc1ccc(S(=O)(=O)N2CCN(C3CCCC3)CC2)cc1 | -12.4
O=C(NCc1ccccn1)C(=O)Nc1ccc(F)cc1 | -3.1
CCCCCOC(=O)C1=C(C)NC(=S)NC1c1ccccc1 (configuration not stated) | 3.3
CCOC(=O)Oc1ccc2c(=O)c(Oc3ccccc3Br)coc2c1 | 13.4
